From paper PMC6172828
These are yes or no findings as the source states them, for the method shown. In cells and extracts the contact can be indirect. Some binding calls cover weakened binding; strength is not graded here. For some assays here: Tags and fused reporters may be left off the sequences shown.

Chains of the proteins cited; added tags and fusions are not shown.
UniProt Q9Z148: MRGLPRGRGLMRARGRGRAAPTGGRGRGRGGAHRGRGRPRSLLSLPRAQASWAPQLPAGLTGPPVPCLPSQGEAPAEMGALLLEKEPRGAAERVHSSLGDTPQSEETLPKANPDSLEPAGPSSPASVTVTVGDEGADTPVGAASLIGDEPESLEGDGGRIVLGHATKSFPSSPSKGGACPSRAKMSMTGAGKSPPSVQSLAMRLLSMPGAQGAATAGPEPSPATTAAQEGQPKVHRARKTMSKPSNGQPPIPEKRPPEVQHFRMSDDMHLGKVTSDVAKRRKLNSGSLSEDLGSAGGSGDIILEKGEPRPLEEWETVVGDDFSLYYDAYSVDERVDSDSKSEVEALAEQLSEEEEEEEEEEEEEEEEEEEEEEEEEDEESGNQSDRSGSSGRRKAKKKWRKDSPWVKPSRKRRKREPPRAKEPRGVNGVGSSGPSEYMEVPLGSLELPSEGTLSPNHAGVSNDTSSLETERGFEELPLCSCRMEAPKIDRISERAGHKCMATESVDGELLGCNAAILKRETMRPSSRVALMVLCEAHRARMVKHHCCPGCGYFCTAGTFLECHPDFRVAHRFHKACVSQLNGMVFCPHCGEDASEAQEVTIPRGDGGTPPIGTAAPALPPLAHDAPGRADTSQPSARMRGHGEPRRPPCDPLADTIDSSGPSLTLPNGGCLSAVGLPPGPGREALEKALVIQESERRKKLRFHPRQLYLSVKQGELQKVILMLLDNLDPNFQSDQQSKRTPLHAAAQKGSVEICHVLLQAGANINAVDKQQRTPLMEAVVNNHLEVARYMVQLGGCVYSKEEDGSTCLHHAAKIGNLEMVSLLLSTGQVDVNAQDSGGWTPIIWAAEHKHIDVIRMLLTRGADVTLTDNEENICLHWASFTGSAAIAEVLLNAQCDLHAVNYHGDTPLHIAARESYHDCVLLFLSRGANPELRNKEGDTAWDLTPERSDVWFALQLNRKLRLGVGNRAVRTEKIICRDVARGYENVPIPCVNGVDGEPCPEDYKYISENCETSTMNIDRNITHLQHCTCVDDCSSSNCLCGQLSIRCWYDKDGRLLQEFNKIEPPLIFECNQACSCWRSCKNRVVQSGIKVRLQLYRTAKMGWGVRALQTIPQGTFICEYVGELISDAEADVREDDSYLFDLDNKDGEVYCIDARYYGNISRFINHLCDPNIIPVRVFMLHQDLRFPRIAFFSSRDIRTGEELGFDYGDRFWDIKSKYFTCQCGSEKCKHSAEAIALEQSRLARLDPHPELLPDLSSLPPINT

T1: 3xFLAG-tagged ATF7IP Δ(1–16) mutant (expressed in HEK293T cells) (mouse) (UniProt Q7TT18)
T1 sequence: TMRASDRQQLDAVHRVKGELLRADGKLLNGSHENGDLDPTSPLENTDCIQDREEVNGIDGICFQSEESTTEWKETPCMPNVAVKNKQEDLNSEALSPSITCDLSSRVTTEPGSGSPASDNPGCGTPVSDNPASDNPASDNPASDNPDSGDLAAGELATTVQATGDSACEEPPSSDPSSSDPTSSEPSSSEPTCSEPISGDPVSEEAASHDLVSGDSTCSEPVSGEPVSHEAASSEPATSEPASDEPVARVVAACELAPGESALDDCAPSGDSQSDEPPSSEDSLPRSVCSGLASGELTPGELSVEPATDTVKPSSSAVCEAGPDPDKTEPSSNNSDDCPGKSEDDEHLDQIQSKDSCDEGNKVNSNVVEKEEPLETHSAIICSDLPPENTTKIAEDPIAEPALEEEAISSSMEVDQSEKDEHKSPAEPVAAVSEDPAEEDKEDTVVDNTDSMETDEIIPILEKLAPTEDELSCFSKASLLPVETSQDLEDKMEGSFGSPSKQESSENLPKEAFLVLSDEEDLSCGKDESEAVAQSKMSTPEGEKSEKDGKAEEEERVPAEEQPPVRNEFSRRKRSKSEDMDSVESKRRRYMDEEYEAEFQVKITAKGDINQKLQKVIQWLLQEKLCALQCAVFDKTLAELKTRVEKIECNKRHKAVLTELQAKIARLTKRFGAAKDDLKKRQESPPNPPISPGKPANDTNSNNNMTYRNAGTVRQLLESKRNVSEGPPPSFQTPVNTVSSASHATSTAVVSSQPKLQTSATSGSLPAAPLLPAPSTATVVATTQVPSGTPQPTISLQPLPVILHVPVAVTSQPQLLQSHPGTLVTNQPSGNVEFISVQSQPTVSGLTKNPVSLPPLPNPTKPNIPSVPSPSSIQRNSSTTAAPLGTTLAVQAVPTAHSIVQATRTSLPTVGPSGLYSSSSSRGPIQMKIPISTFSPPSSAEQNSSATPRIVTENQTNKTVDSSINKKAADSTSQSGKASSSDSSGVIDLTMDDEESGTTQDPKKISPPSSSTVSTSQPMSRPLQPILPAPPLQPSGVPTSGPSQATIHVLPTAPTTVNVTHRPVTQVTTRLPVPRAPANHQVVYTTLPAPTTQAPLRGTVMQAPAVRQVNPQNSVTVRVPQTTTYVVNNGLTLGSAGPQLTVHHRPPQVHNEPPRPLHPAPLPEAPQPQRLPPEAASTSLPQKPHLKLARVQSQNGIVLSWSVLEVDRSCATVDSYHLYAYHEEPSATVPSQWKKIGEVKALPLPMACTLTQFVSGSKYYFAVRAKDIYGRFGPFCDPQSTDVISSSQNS

T2: ATF7IP, endogenous in WT mESCs (mouse (endogenous in mESCs)) (UniProt Q7TT18)
T2 sequence (chain, tri-methylated lysine at K16 (shown on 3xFLAG-ATF7IP in WT mESCs, ~ 92%)): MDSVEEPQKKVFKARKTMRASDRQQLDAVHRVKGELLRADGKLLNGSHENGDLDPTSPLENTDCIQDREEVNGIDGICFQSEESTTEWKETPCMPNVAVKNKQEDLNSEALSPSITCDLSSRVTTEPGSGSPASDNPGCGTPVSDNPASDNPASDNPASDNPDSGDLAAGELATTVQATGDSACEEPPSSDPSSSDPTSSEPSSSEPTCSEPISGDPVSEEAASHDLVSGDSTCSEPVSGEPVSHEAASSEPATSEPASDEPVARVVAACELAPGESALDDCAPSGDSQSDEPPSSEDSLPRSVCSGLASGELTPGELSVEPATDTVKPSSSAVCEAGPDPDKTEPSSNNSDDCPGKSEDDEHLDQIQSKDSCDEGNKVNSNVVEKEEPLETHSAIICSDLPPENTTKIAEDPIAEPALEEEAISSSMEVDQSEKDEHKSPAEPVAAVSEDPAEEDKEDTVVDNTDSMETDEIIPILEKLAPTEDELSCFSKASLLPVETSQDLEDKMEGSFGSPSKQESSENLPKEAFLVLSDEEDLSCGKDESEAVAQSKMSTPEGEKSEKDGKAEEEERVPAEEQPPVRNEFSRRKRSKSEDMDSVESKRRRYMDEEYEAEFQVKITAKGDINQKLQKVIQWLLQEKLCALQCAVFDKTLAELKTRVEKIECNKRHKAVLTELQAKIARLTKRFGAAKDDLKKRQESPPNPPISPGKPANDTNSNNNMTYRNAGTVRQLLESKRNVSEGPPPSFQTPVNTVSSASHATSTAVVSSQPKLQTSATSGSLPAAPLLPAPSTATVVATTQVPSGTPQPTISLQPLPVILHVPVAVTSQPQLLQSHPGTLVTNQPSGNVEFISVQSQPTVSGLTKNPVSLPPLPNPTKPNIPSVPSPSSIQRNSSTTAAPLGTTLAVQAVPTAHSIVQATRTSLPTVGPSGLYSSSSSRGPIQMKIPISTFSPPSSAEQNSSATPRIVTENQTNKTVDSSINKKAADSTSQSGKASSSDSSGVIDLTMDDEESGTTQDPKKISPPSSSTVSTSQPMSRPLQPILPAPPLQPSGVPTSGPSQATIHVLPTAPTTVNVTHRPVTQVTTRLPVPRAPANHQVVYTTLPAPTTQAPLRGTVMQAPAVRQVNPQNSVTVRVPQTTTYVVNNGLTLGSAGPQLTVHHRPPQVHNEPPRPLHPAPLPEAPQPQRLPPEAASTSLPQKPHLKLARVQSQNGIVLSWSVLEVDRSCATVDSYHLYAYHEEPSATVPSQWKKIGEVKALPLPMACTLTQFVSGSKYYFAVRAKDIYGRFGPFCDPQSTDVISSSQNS


Columns and labels:
[1] = biological target: T1, 3xFLAG-tagged ATF7IP Δ(1–16) mutant (expressed in HEK293T cells) (mouse); assay: co-IP; HEK293T cells co-transfected with G9a or GLP plus 3xFLAG-ATF7IP WT, K16R or Δ(1–16); anti-FLAG M2 agarose; western blot
[2] = biological target: T2, ATF7IP, endogenous in WT mESCs (mouse (endogenous in mESCs)); assay: co-IP; chromatin fraction of WT or Atf7ip KO mESCs, sonicated in normal-lysis buffer; anti-ATF7IP antibody, Protein A and Protein G Dynabeads; western blot

| binding [1] | binding [2] | Molecule |
| --- | --- | --- |
| no binding | – | G9a (co-transfected into HEK293T cells) (from UniProt Q9Z148 1-1263) (enzyme) |
| – | binds | M-phase phosphoprotein 8 (MPP8), endogenous in mESCs (protein, UniProt Q3TYA6 1-858) MAAAAEEGMSAAALVMSVPDSIGRSPESEGVGAGDEEKDAATKGTVAVGDSEEDGEDVFEVERILDMKCEGGKNLYKVRWKGYTSEDDTWEPEVHLEDCKEVLLEFRKKLAENKAKAVRKDIQRLSLNNDIFEADSDSDQQSDTKEDISPRKKKKKIKCKEETSPEDLRKKRTKMGKLKDKFKTELESTSEIIGFDVKTKKRIWEVKEELKDSKKPKKDEIKETKELKKANKRAEVRDLKIKIREDVKENRKTKKERYIESPLESESPNDSLILEDDSEDFISDNREENQNVRSVRDKTAQETVQEGIFEKHLDDLISIEEDAGTRVRRKKTKPRKFEEPKEIKKLESTNAFLERRAIPKKQRNQDKGISNLELNKLPSPVFAQTLKSSRLSGEEKSLKSPDLAEEEKEKKNEPKGKYQKRYDLDKEEKARKEPKVLKSFKEIRNAFDLFKKTTEEKNDVLENNSKREEISLDSKIMNDNKTKDKCSLKEKRNTRDETDTWAYIAAEGDQEVSDSVCQTDETSDGRQPVLSLGMDLQLEWMKLEDFQKHLDGEDEPFITTNRIPNNLLRDAVKNGDYIAVKVALNSNEEYNLDQEDSTGMTLVMLAAAGGQDDLLRLLITKGAKVNGRQKNGTTALIHAAEKNFLTTVAILLEAGAFVNVQQSNGETALMKACKRGNSDIVRLVIECGADCNILSKHQNSALYFAKQCNNVLVYELLKSHLETLSRVAEETIRDYFESRLALLEPVFPIACHRLCEGPDFSTDFNYMPPQNMPEGSGVLLFIFHANFLGKDVIARLCGPCSVQAVVLNDKFQLPVFLDSHFVYSFSPVAGPNKLFIRLTEAPFAKVKLLIGAYRVQLQ |
